Results taken from PubChem BioAssay (NCI).
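Protocol summary: plate cells (96-well), add compound at 5 concentrations, incubate 48 h, interpolate endpoints linearly. The concentration for 50% growth inhibition is given as GI50.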 A number of entries come with more than one value. The list is limited to them. An entry can have further records. For some assays here: Records of one sample usually come from different ranges of test concentrations, not given here; a value can be the end of its range.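 TGI: concentration producing complete growth inhibition.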 For some assays here: Values given together are repeated measurements across runs, samples, wells, individuals or studies. Brackets tell where a record comes from. A, B and so on number the origins entry by entry.

Tests used:
Assay in all cases: NCI tumour cell line growth inhibition, 48 h
BT-549 breast = system: BT-549 breast
SK-MEL-2 melanoma = system: SK-MEL-2 melanoma
A498 renal = system: A498 renal
OVCAR-3 ovarian = system: OVCAR-3 ovarian
KM12 colon = system: KM12 colon
HCC-2998 colon = system: HCC-2998 colon
NCI-H522 lung = system: NCI-H522 lung
DU-145 prostate = system: DU-145 prostate
SF-295 CNS = system: SF-295 CNS
OVCAR-8 ovarian = system: OVCAR-8 ovarian
M14 melanoma = system: M14 melanoma
LXFL 529 NSCLC = system: LXFL 529 NSCLC
RXF-631 renal = system: RXF-631 renal
XF 498 CNS = system: XF 498 CNS
MALME-3M melanoma = system: MALME-3M melanoma
SNB-19 CNS = system: SNB-19 CNS
CAKI-1 renal = system: CAKI-1 renal
MOLT-4 leukemia = system: MOLT-4 leukemia
HOP-18 NSCLC = system: HOP-18 NSCLC
CCRF-CEM leukemia = system: CCRF-CEM leukemia
HL-60(TB) leukemia = system: HL-60(TB) leukemia

**Q.** For `CC[C@]12CN3CCc4c([nH]c5ccccc45)[C@@](C(=O)OC)(c4cc5c(cc4OC)N(C)[C@H]4[C@@](O)(C(=O)OC)[C@H](OC(C)=O)[C@]6(CC)C=CCN7CC[C@]54[C@@H]76)CC(C3)[C@H]1O2` (stereo partly drawn), which TGI (BT-549 breast) is on record?
**A.** The TGI was > 100 µM [sample A] and 4.62 µM [sample B].

**Q.** What about the TGI (SK-MEL-2 melanoma) of the same compound?
**A.** Its TGI is 27.8 µM [sample A] and 1.6 µM [sample B].

**Q.** What about the TGI (A498 renal) of the same compound?
**A.** The TGI was > 48.1 µM [sample A] and 4.67 µM [sample B].

**Q.** What about the TGI (OVCAR-3 ovarian) of the same compound?
**A.** The TGI was 33.8 µM [sample A] and 201 nM [sample B].

**Q.** And the TGI (KM12 colon)?
**A.** The TGI was > 28.4 µM [sample A] and 1.14 µM [sample B].

**Q.** And the TGI (HCC-2998 colon)?
**A.** The TGI was 56.2 nM [sample A] and > 10 µM [sample B].

**Q.** What about the TGI (NCI-H522 lung) of the same compound?
**A.** The TGI was 10.5 µM [sample A] and 139 nM [sample B].

**Q.** And the TGI (DU-145 prostate)?
**A.** The TGI was > 46 µM [sample A] and 415 nM [sample B].

**Q.** How did the TGI (SF-295 CNS) turn out when `COc1cc2c(c(OC)c1OC)-c1ccc(SC)c(=O)cc1[C@@H](NC(=O)c1cccc([N+](=O)[O-])c1)CC2` was run?
**A.** The TGI was 53.9 nM and 15.5 µM.

**Q.** And the TGI (OVCAR-8 ovarian)?
**A.** Its TGI is 66.2 nM and 17.1 µM.

**Q.** What about the TGI (M14 melanoma) of the same compound?
**A.** Its TGI is 47.5 nM and 38 µM.

**Q.** And the TGI (LXFL 529 NSCLC)?
**A.** The TGI was 86.4 nM and 40.2 µM.

**Q.** And the TGI (RXF-631 renal)?
**A.** Its TGI is 49.8 nM and 14.1 µM.

**Q.** And the TGI (XF 498 CNS)?
**A.** The TGI was 72.6 nM and 10.7 µM.

**Q.** And the TGI (MALME-3M melanoma)?
**A.** The TGI was 64.7 nM and 41.7 µM.

**Q.** And the TGI (SNB-19 CNS)?
**A.** The TGI was 93.9 nM and 19.1 µM.

**Q.** What does the source list for `CC[C@@]1(O)CC(OC2CC(N3CCOCC3)C(O)C(C)O2)c2c(O)c3c(c(O)c2[C@H]1O)C(=O)c1cccc(O)c1C3=O` (stereo partly drawn)?
**A.** GI50 (CAKI-1 renal): < 12.2 nM [mean of 2 tests] and 0.767 nM [mean of 3 tests] and 25.8 nM [mean of 7 tests]; GI50 (KM12 colon): 0.966 nM and 107 nM; GI50 (MOLT-4 leukemia): 18.9 nM [mean of 10 tests] and 0.252 nM [mean of 5 tests]; GI50 (HOP-18 NSCLC): 55.9 nM [mean of 4 tests] and 0.626 nM [mean of 5 tests]; TGI (HOP-18 NSCLC): 0.997 nM, 2.54 µM, 312 nM; TGI (CCRF-CEM leukemia): 0.649 nM, 1.19 µM, 201 nM

**Q.** Which TGI (HL-60(TB) leukemia) does the source give for `CC(=O)O[C@@H]1c2c(c3c(=O)c4cccc(O)c4c(=O)c=3c2=[N+]=[N-])[C@H](OC(C)=O)[C@@H](OC(C)=O)[C@]1(C)O` here?
**A.** The TGI was 50 µM and 402 nM.
